Out of some 150,000 compounds screened, about 540 (0.36%) showed an effect of 50% or more. Some of the results follow.
Tested on: Plasmodium falciparum
Assay: Primary screen in NF54 nanoGlo assay, in single point, at 2uM, 72h; a lower Z score goes with more inhibition
Type: functional, Erythrocyte
Details: timepoint 72 hour

SMILES	% Inhibition	Z score
O=C(NC1CCCCC1)N1CCC[C@H](CN2CCOCC2)CC1	-1%	0.14
CC(=O)N[C@H]1C[C@H]2CN(C(=O)NCCc3ccccc3)CC(=O)N2C1	-2%	0.24
CCCCNC(=O)Cc1noc(CN(CC)C2CC2)n1	-10%	0.83
Cc1cc(N)nn1Cc1nnc2n1CCC2	35%	-3.91
Cn1nncc1-c1csc(N2CCOCC2)n1	-11%	1.43
O=C(CCOCC(F)F)Nc1ccc(Br)cc1O	-1%	0.15
Cc1ccc2c(c1)c(=O)c1c(n2C(C)C)CCN(C(=O)C(F)(F)F)C1	-4%	0.62
C[C@@H](C(=O)Nc1n[nH]c(Cc2cccc(F)c2)n1)n1nnc(-c2ccccc2)n1	9%	-1.83
CC(=O)Nc1cccc(-c2c[nH]nc2C#N)c1	-6%	1.29
C[C@@H](C(N)=O)n1cc(-c2ccc(C(=O)N(C)C3CCN(C)CC3)cc2)cn1	-3%	0.32
O=S1(=O)[C@H](c2ccccc2)CCN1Cc1cnc(C(F)(F)F)nc1	2%	-0.29
Cc1ccc(-c2cccc(C(=O)N3CC[C@@](O)(c4ccccc4C)C3)c2)nn1	1%	-0.08
O=S(=O)(c1cccc(Cl)c1)N1CCCn2nccc21	0%	-0.04
Cc1n[nH]c(C2CC2)c1C(=O)N[C@@H](C)c1nncn1C1CCCC1	-27%	2.84
Cc1cc(NC(=O)[C@H](C)OC(=O)c2ccc(Cl)cc2O)on1	-3%	0.32
O=S(=O)(NCCN1CCc2ccccc2C1)N1CCCCC1	5%	-0.88
C[C@@](O)(CNC(=O)c1ccsc1)Cc1ccsc1	-10%	1.44
C[C@H](Nc1ncnc2[nH]ncc12)c1ccc(Cl)s1	-12%	1.22
Cc1ccc(S(=O)(=O)N[C@@H](Cc2c[nH]c3ccccc23)C(=O)O)cc1	-14%	1.79
NC(=O)c1cn(C2CN(Cc3cc(Cl)ccc3F)C2)nn1	2%	-0.32
O=C(c1cccc(=O)[nH]1)N1CCC(n2cc(-c3cccnc3)nn2)CC1	-9%	1.32

SMILES	% Inhibition	Z score
COCCn1cc(S(=O)(=O)NCC(F)(F)F)cn1	-8%	0.97
CN(Cc1cnc2cnccn12)[C@H](c1ccc(F)cc1)C1CC1	-7%	1.06
O=C1N[C@@H](c2ccc(OCc3c(F)cccc3Cl)cc2)Nc2ccccc21	-11%	1.68
CN(Cc1nc(-c2ccccn2)no1)C(=O)[C@H]1CC(=O)OC12CCCC2	-7%	0.99
O=C(Cn1ccc2ccccc21)N1CC(Nc2ccncn2)C1	-14%	1.6
Cc1ccnc2c1NC(=O)CN2C(=O)c1ccc(Br)cc1	5%	-0.61
CC1CC(C(=O)N2CC(C(N)=O)C(C(N)=O)C2)CC(C)(C)C1 (stereo not drawn)	2%	-0.33
CCc1ccccc1NC(=O)C1CCN(S(=O)(=O)c2cc3c(cc2C)NC(=O)[C@H](C)O3)CC1	13%	-1.56
COc1cc(CN2CCCC[C@H]2c2cn[nH]c2)cc(OC)c1OC	-11%	1.24
COC(=O)c1nc(-c2cnn(C)c2)sc1-c1ccccc1	-1%	0.13
O=C(Nc1ccccc1-c1cn2c(n1)CCCC2)[C@H]1CCOC1	15%	-1.91
C[C@H](O)CN1CCC(CN(C)Cc2ccn(-c3ccccc3)n2)CC1	-4%	0.57
O=C(c1cnc(Cc2c(Cl)cccc2Cl)nc1O)N1CCCOCC1	-9%	1.8
Cc1c[nH]c(CN(C)C(=O)c2cc3cnccc3nc2C)n1	7%	-1.35
COc1ccc(C(=O)Nc2c(-c3ccccc3Cl)c(=O)c(C)nn2-c2ccc(C)cc2)cc1	9%	-1.23
CC(C)C(=O)N1CCCN([C@@H](C)C(=O)N2CCc3ccccc32)CC1	4%	-0.36
O=C(C(O)c1ccccc1)N1CCC2C(CCC(=O)N2C2CC2)C1 (stereo not drawn)	2%	-0.3
O=C(COc1ccccc1)N1CC(c2nc(-c3cnccn3)no2)C1	4%	-0.79
Cc1cc(CNCc2cc3ccc(F)cc3nc2OCc2ccccc2Cl)on1	-1%	0.13
CC(NC(=O)c1cccc(C(=O)NC(C)c2ccccc2)n1)c1ccccc1 (stereo not drawn)	-7%	0.91
Cc1cccc(C)c1NC(=O)[C@H]1CCCN(C(=O)Cc2cccc3ccccc23)C1	-3%	0.47

SMILES	% Inhibition	Z score
CCN(Cc1nc(C)no1)Cc1cc2cc3c(cc2nc1-c1ccc(F)cc1)OCO3	-10%	1.35
O=C(NC1COCCOC1)N1CCC2(c3ccccc3)C(C1)C2(F)F (stereo not drawn)	4%	-0.61
CCCO/C(=N/C(=O)c1ccccc1Cl)NCc1ccc2c(c1)OCO2	-12%	1.98
CC(Cn1cccn1)NCC(=O)N(C)CC1COc2ccccc2O1 (stereo not drawn)	-7%	0.59
CC1(C)CN(C(=O)Nc2ccn(CCN3CCNC3=O)n2)C1	-4%	0.46
COc1cc(N[C@H]2C[C@H](c3nnc(CN(C)C)n3C)C2)nc(OC)n1	11%	-1.47
CC(C)CC(=O)N1CCc2cc(CNS(=O)(=O)c3ccc(C4CCCCC4)cc3)ccc21	-10%	1.88
CC[C@@H]1OC2(CCN(c3cccc(C(F)(F)F)n3)CC2)NC1=O	-6%	1
O=C(NCc1ccc(C(=O)N2CCOCC2)cc1)N1CCc2c(nnn2-c2ccccc2)C1	-11%	1.32
CCc1nn(C)cc1NC(=O)NCC[C@H]1CC(=O)N(C)C1	-2%	0.37
Cc1cccc(CNC(=O)C2CC(c3ccc(F)cc3)CN(Cc3ccc(F)cc3F)C2)c1 (stereo not drawn)	-2%	0.35
Cc1nnc2n1CCN(C(=O)Cc1cccs1)[C@H]2C(=O)N1CCCC1	-11%	1.23
CCCc1c(C(C)C)nc(N)c(C#N)c1-c1cn(CCO)nc1C	-5%	0.83
O=C(NCCc1ccccn1)c1cc2n(n1)CCN(Cc1c(Cl)cccc1Cl)C2=O	14%	-1.4
Cc1cc(C)c(C(=O)NCc2ccc3c(c2)CN(C(=O)c2oc(C)cc2C)C3)o1	-8%	1.35
CCOC(=O)Cn1nc(C)cc1NC(=O)COC[C@H]1CCCO1	-6%	0.98
COc1cc(C)sc1C(=O)N(C)C[C@H]1CCCOC1	-12%	1.53
Cc1ccnc(NC(=O)c2cscc2C)n1	-6%	0.68
O=C(N[C@H]1CCN(c2ccc3nncn3n2)C1)OC1CN(Cc2ccccc2)C1	-9%	1.46
CC(C)CCN(C(=O)COc1ccc(CC(N)=O)cc1)C1CC1	-5%	0.78
C[C@@H](Cc1cccs1)C(=O)N1CCCC1	0%	0.04

SMILES	% Inhibition	Z score
CCc1nnc2c(S(=O)(=O)N(Cc3cccc(Cl)c3)c3ccccc3)cccn12	-17%	2.2
COc1ccc2c(c1)[C@@H](NC(=O)c1c3c(nn1C)CCCC3)CC(C)(C)O2	4%	-0.82
Cc1ccc(F)c(Cn2nc(C)c([C@@H]3CCCC(=O)N3)c2C)c1	1%	-0.12
CN1CCN(C(=O)CN2C(=O)COc3ccccc32)CC1	-13%	2.24
CS(=O)(=O)Cc1noc(NS(=O)(=O)c2csc3ccc(Cl)cc23)n1	-7%	0.6
COc1ccc(CN2C(=O)COC[C@H]2C(=O)Nc2ccc(C(C)C)cc2)cc1OC	-3%	0.32
COC(=O)Oc1cncc(C(=O)ON2C(=O)CCC2=O)c1	5%	-0.98
c1csc(CCN2CCC(n3ccnn3)CC2)c1	-12%	1.27
Cc1c(NC(=O)NCCC2CC3CCC2C3)c(=O)n(-c2ccccc2)n1C (stereo not drawn)	-5%	1.13
Cc1nnc(COc2c(F)cc(F)cc2Br)n1C1CC1	4%	-0.44
O=C(NC[C@H]1CCC[C@@H](CO)C1)c1ncoc1C(F)(F)F	-7%	0.88
CC(C)c1cc(C(=O)N2C[C@H]3CN(Cc4ccccc4)C[C@H]3C2)n[nH]1	-6%	0.81
CCCCN(CC(N)=O)S(=O)(=O)N1CC(C)OC(C)C1 (stereo not drawn)	-1%	0.21
Cc1cc(C)cc(CCC(=O)N2C[C@@H](CN(C)C)[C@@H](CO)C2)c1	-11%	1.09
CN(C)S(=O)(=O)N1CCC[C@H](S(=O)(=O)N2CCc3ccccc32)C1	2%	-0.25
Cc1cccnc1-n1nc(C2CC2)nc1C(=O)NCC(C)C	-14%	1.93
CC1=C(Cc2cn(CCn3cccn3)nn2)C(C)(C)CCC1	7%	-1.08
CC(C)NC(=O)Nc1nc2c(s1)CN(C(=O)c1cccn(C)c1=O)CC2	-4%	0.6
O=C(c1ccc2cc[nH]c2c1)N1CCNCC1	-7%	0.91
O=C(c1ccccc1-c1nc[nH]n1)N1CC(c2cccnc2)C1	-5%	1.02
CC1(C)CN(CC(=O)N2CCCC2)c2ccc(S(=O)(=O)NCc3ccc4c(c3)OCO4)cc21	-9%	1.3

Reference: ChEMBL document CHEMBL4888484, “Replenishing the malaria drug discovery pipeline: Screening and hit evaluation of the MMV Hit Generation Library 1 (HGL1) against asexual blood stage Plasmodium falciparum ,using a nano luciferase reporter read-out” (2022)
